Patent US11135177B2, “Methods of making and using compositions comprising flavonoids” (VIZURI HEALTH SCIENCES CONSUMER HEALTHCARE, INC., priority 2009, dated 2021)
Each block holds one molecule with its values, some of them ahead of it.

How the values were obtained:
[1] = Qualitative assessment of hydrated flavonoid suspension in Aqueous Phase Lotion diluted with water; format: physicochemical; settings: hydrated flavonoid 1.25% in APL; 5 ml of lotion in 150 ml of water
[2] = Apigenin solubility in alkaline solutions and alkaline glycerin; settings: sodium hydroxide solution, aqueous buffer, thermodynamic from solid, Apigenin Solubility (mg/ml)
[3] = Particle size distribution (static light scattering / Malvern Mastersizer); format: physicochemical; settings: unprocessed powder
[4] = Solubility in molten vitamins B5 / B3
[5] = Scanning electron microscopy morphology; format: physicochemical; settings: SEM
[6] = Thermal stability of PS80 heated with apigenin (mass spectroscopy); format: physicochemical; settings: heated to ~250-300° C., compared with unheated control

Particulate Settling After 3 hours [1]: None/
Molecule: O=c1cc(-c2ccc(O)c(O)c2)oc2cc(O)cc(O)c12 [luteolin, 3′,4′,5,7-tetrahydroxyflavone]

solubility ([2]; NaOH 0.75 M): > 150 mg/mL
solubility ([2]; NaOH 1.015 M): > 200 mg/mL
solubility ([2]; NaOH 2.0 M): > 300 mg/mL
particle size of the very large distribution [3]: around 40 microns
Evidence of Nano Particles [1]: Yes
Particulate Settling After 3 hours [1]: None
solubility in molten D,L Panthenol ([4]; molten D,L Panthenol, approximately 65° C.): readily dissolved
solubility in molten niacinamide (Vitamin B3) [4]: readily soluble
Molecule: O=c1cc(-c2ccc(O)cc2)oc2cc(O)cc(O)c12 [apigenin, 4′,5,7,-trihydroxyflavone]

aspect ratios [5]: greater than 20
fiber diameters [5]: 30-500 nm
solubility in molten niacinamide (Vitamin B3) [4]: readily soluble
Molecule: O=c1cc(-c2ccc(O)cc2)oc2cc(O)cc(O)c12 [hydrated apigenin]

degradation on heating with apigenin [6]: did not significantly degrade
Molecule: polyoxyethylene (20) sorbitan monooleate [PS 80]
